# Data taken from the supplement of paper PMC12217912.
# The list shows a part of the results. Sequences were assembled here from the parent chain. Values near 0.05 are background.
# B1: TEV protease; numbered along this chain (parent)
# chain: MGESLFKGPRDYNPISSSICHLTNESDGHTTSLYGIGFGPFIITNKHLFRRNNGTLVVQSLHGVFKVKDTTTLQQHLVDGRDMIIIRMPKDFPPFPQKLKFREPQREERICLVTTNFQTKSMSSMVSDTSCTFPSGDGIFWKHWIQTKDGQCGSPLVSTRDGFIVGIHSASNFTNTNNYFTSVPKNFMELLTNQEAQQWVSGWRLNADSVLWGGHKVFMVKPEEPFQPVKEATQL
# Variants of: B1
# Test: raw area under fraction-flipped curve 0-4 h after induction (AUC4h, not background-subtracted), DNA-recorder readout of cleavage of the substrate (dimensionless); higher = more cleavage of the substrate by the protease variant
# Settings: temperature: 34 °C; time window: 0-4 h after rhamnose induction
# Experimental: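 In vivo DNA recorder in E. coli TOP10(DE3) ΔrhaA at 34 °C. Each TEVp single-site mutant (parent TEVp 0) is paired with a single-site variant of the 7-mer TEVs (canonical ENLYFQ|S). The substrate sits between flexible linkers in a Bxb1-sfGFP-TEVs-SsrA fusion, so cleavage stabilises Bxb1 and speeds flipping of a recombination array, read by NGS. The value is the raw area under the fraction-flipped curve over 0-4 h after rhamnose induction (AUC4h), with ≥20 reads per time point. It is not background-subtracted; inactive controls average about 0.047.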
# 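Further: Bxb1 expression induced with 0.2% (w/v) L-rhamnose at OD600 near 0.5, cultures sampled hourly, flipped fraction per protease–substrate barcode pair counted by paired-end Illumina sequencing.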
Variant,area with substrate ENLYAQS,area with substrate ENLYCQS,area with substrate ENLYDQS,area with substrate ENLYEQS,area with substrate ENLYGQS,area with substrate ENLYHQS,area with substrate ENLYIQS,area with substrate ENLYKQS,area with substrate ENLYLQS,area with substrate ENLYMQS,area with substrate ENLYNQS,area with substrate ENLYPQS,area with substrate ENLYQQS,area with substrate ENLYRQS,area with substrate ENLYTQS,area with substrate ENLYVQS,area with substrate ENLYWQS,area with substrate ENLYYQS,area with substrate ENLYSQS
MGESLFKGPRDYNPISSSICHLTNESDGHTTSLYGIGFGPFIITNKHLFRRNNGTLVVQSLHGVFKVKDTTTLQQHLVDGRDMIIIRMPKDFPPFPQKLKFREPQREERICLVTTNFQTKSMSSMVSDTSCTFPSGDGIFWKHWIQTKDGQCGSPLVSTRDGFIVGIHSASNFTNTNNYFTSVPKNFMELLTNQEAQQWVSGWRLNADSVLWGGHKVFMPKPEEPFQPVKEATQL [V220P],0.0664,0.0731,0.0643,0.0562,0.0648,0.0549,0.0578,0.0715,0.0659,0.0723,0.0589,0.077,0.0661,0.0541,0.077,0.097,0.0615,0.0692,–
MGESLFKGPRDYNPISSSICHLTNESDGHTTSLYGIGFGPFIITNKHLFRRNNGTLVVQSLHGVFKVKDTTTLQQHLVDGRDMIIIRMPKDFPPFPQKLKFREPQREERICLVTTNFQTKSMSSMVSDTSCTFPSGDGIFWKHWIQTKDGQCGSPLVSTRDGFIVGIHSASNFTNTNNYFTSVPKNFMELLTNQEAQQWVSGWRLNADSVLWGGHKVFMVKSEEPFQPVKEATQL [P222S],0.0693,–,–,0.0669,0.0617,0.0607,0.0992,0.0707,–,0.0808,0.0764,0.0655,0.0575,0.0557,0.0649,0.0948,0.0048,0.0659,0.0901
MGESLFKGPRDYNPISSSICHLTNESDGHTTSLYGIGFGPFIITNKHLFRRNNGTLVVQSLHGVFKVKDTTTLQQHLVDGRDMIIIRMPKDFPPFPQKLKFREPQREERICLVTTNFQTKSMSSMVSDTSCTFPSGDGIFWKHWIQTKDGQCGSPLVSTRDGFIVGIHSASNFTNTNNYFTSVPKNFMELLTNQEAQQWVSGWRLNADSVLWGGHKVFMVKPEEPWQPVKEATQL [F226W],0.0681,–,0.0707,0.0723,0.0667,–,0.122,0.0804,–,0.087,0.0687,0.0692,0.0677,–,0.103,0.118,0.0944,0.052,0.0739
MGESLFKGPRDYNPISSSICHLTNESDGHTTSLYGIGFGPFIITNKHLFRRNNGTLVVQSLHGVFKVKDTTTLQQHLVDGRDMIIIRMPKDFPPFPQKLKFREPQREERICLVTTNFQTKSMSSMVSDTSCTFPSGDGIFWKHWIQTKDGQCGSPLVSTRDGFIVGIHSASNFTNTNNYFTSVPKNFMELLTNQEAQQWVSGWRLNADSVLWGGHKVFMVKPEEPFQPVKHATQL [E231H],0.0672,0.0814,–,0.0762,–,–,0.0917,0.0556,–,0.0893,0.0684,0.0735,0.0542,–,0.0655,0.137,0.0655,–,–
MGESLFKGPRDYNPISSSICHLTNESDGHTTSLYGIGFGPFIITNKHLFRRNNGTLVVQSLHGVFKVKDTTTLQQHLVDGRDMIIIRMPKDFPPFPQKLKFREPQREERICLVTTNFQTKSMSSMVSDTSCTFPSGDGIFWKHWIQTKDGQCGSPLVSTRDGFIVGIHSASNFTNTNNYFTSVPKNFMELLTNQEAQQWVSGWRLNADSVLWGGHKVFMVKPEEPFQPVKEAGQL [T233G],0.0745,0.084,0.0587,0.0594,0.0637,0.0679,0.135,–,–,0.092,0.0603,0.0723,0.0628,0.0552,0.0874,0.103,–,–,–
MGESLFKGPRDYNPISSSICHLTNESDGHTTSLYGIGFGPFIITNKHLFRRNNGTLVVQSLHGVFKVKDTTTLQQHLVDGRDMIIIRMPKDFPPFPQKLKFREPQREERICLVTTNFQTKSMSSMVSDTSCTFPSGDGIFWKHWIQTKDGQCGSPLVSTRDGFIVGIHSASNFTNTNNYFTSVPKNFMELLTNQEAQQWVSGWRLNADSVLWGGHKVFMVKPEEPFQPVKEAKQL [T233K],0.0707,–,0.0597,0.0595,0.0777,0.0712,0.126,0.0751,–,0.0982,0.0794,0.0691,0.0596,0.0621,0.0982,0.161,0.0842,–,0.0873
MGESLFKGPRDYNPISSSICHLTNESDGHTTSLYGIGFGPFIITNKHLFRRNNGTLVVQSLHGVFKVKDTTTLQQHLVDGRDMIIIRMPKDFPPFPQKLKFREPQREERICLVTTNFQTKSMSSMVSDTSCTFPSGDGIFWKHWIQTKDGQCGSPLVSTRDGFIVGIHSASNFTNTNNYFTSVPKNFMELLTNQEAQQWVSGWRLNADSVLWGGHKVFMVKPEEPFQPVKEATKL [Q234K],0.0815,0.122,0.0461,0.074,0.0639,0.0641,0.127,0.0211,–,0.121,0.072,0.0894,–,0.0452,0.0597,0.126,–,0.0682,0.0962
MGENLFKGPRDYNPISSSICHLTNESDGHTTSLYGIGFGPFIITNKHLFRRNNGTLVVQSLHGVFKVKDTTTLQQHLVDGRDMIIIRMPKDFPPFPQKLKFREPQREERICLVTTNFQTKSMSSMVSDTSCTFPSGDGIFWKHWIQTKDGQCGSPLVSTRDGFIVGIHSASNFTNTNNYFTSVPKNFMELLTNQEAQQWVSGWRLNADSVLWGGHKVFMVKPEEPFQPVKEATQL [S4N],–,0.0997,0.0927,0.0756,–,0.069,–,0.0683,0.0882,0.0796,0.0611,0.0789,0.0665,–,–,0.183,0.0653,–,0.0646
MGESLFKGPRDKNPISSSICHLTNESDGHTTSLYGIGFGPFIITNKHLFRRNNGTLVVQSLHGVFKVKDTTTLQQHLVDGRDMIIIRMPKDFPPFPQKLKFREPQREERICLVTTNFQTKSMSSMVSDTSCTFPSGDGIFWKHWIQTKDGQCGSPLVSTRDGFIVGIHSASNFTNTNNYFTSVPKNFMELLTNQEAQQWVSGWRLNADSVLWGGHKVFMVKPEEPFQPVKEATQL [Y12K],–,0.0831,0.0611,0.0547,0.0809,0.0644,0.111,0.0571,0.0696,0.0722,0.0735,0.0726,0.102,0.0607,0.0754,0.0902,0.0835,–,0.0558
